In all, about 410,000 compounds went through this assay and about 1,200 (0.29%) were called active. Inconclusive results, whose numbers are uncertain, are shown with a selection of clear calls. Calls follow the shape of the dose curve; as a rule, active = well fitted activation curve with a large enough effect; inconclusive = small, poorly fitted or top-dose-only effect; inactive = flat fitted curve, though single readings scatter. Where the call is inconclusive, the potency comes from a doubtful curve fit.
Experiment: qHTS of Nrf2 Activators; also: nearly all actives have a fitted effect of over 65% in size; as to activation: % of control where 0% means no effect
Conditions: AREc32 ARE-luciferase reporter (MCF7-derived line), luminescence, 24 h; activation: at 46.1 µM (top of the series)
Outline: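 Cells of the AREc32 ARE-luciferase line are plated in OPTI-MEM containing 5% FBS and left overnight at 37 deg C. Compounds are pinned in, incubation continues 24 hr, and firefly luciferase signal is then measured.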
Potency is read from the fitted curve at half-maximal effect; tags tell the direction and shape of the fitted curve.

SMILES	activation	Potency
CS(=O)(=O)Nc1ccccc1C(=O)NCc1ccco1	inactive: -0.498%	
CCCC(=O)Nc1nc2nc(-c3ccccc3)cc(-c3ccccc3)n2n1	inactive: 0.541%	
O=C(Nc1cccc(NC(=O)c2cccc(Cl)c2)c1)c1cccnc1		inconclusive: 2.82 µM [activator, full curve, poor fit]
O=C1S/C(=C\C=C\c2ccco2)C(=O)N1c1ccccc1		active: 8.91 µM
N#C/C(=C\c1cccs1)C(=O)Nc1ccccn1		inconclusive: 22.4 µM [activator, partial curve, poor fit]
Cc1cc(C(=O)N/N=C/c2ccc(Cl)c([N+](=O)[O-])c2)c(C)n1-c1ccc(F)cc1		inconclusive: 22.4 µM [activator, single point]
COc1ccc(Cl)cc1C(Nc1cccnc1)c1ccc2cccnc2c1O (stereo unspecified)		inconclusive: 15.8 µM [activator, partial curve, poor fit]
CSc1oc(-c2ccccc2)nc1C(N)=O		inconclusive: 14.1 µM [activator, single point]
CCC(=O)Nc1nc2ccccc2n1Cc1ccc(Cl)cc1	inactive: -1.99%	
Cc1ccc(C)c(Sc2ccc(NC(=O)CCl)cc2)c1		inconclusive: 28.2 µM [activator, single point]
CCCCN(C)CCNC(=O)c1cc2c(=O)n(C)c3ccccc3c2n1C		inconclusive: 22.4 µM [activator, partial curve, poor fit]
Cc1cc2oc(=O)cc(Cn3ncc(Cl)c(Cl)c3=O)c2cc1Cl		active: 3.98 µM
COc1ccc(Nc2cc3n(c(=O)n2)CCc2cc(OC)c(OC)cc2-3)cc1	inactive: 8.11%	
COc1ccc(-c2nc3scc(CCNS(=O)(=O)c4ccc(F)cc4C)n3n2)cc1	inactive: 0.211%	
CC(C)(C)c1csc(Sc2ncccc2[N+](=O)[O-])n1		inconclusive: 15.8 µM [activator, single point]
O=C(Nc1ccccc1Cl)C1Cc2ccccc2O/C1=N\O (stereo unspecified)		inconclusive: 15.8 µM [activator, single point]
COc1ccccc1N1CCN(S(=O)(=O)c2c(C)nc3sccn3c2=O)CC1	inactive: -0.0663%	
CCOC(=O)c1c(-c2ccc(C)cc2)csc1NC(=O)CCN1CC(C)OC(C)C1 (stereo unspecified)		inconclusive: 35.5 µM [activator, single point]
O=C(/C=C/c1ccco1)NC(=S)NNC(=O)c1ccco1		inconclusive: 22.4 µM [activator, single point]
CCS(=O)(=O)c1nc(S(=O)(=O)c2ccc(C)cc2)c(N2CCC3(CC2)OCCO3)s1		inconclusive: 11.2 µM [activator, partial curve, poor fit]
Cc1nc([N+](=O)[O-])c(Sc2nc3ccccc3[nH]2)n1Cc1ccccc1		inconclusive: 22.4 µM [activator, single point]
Cc1cccn2c(=O)c3cc(C#N)c(=O)n(-c4nnc(SCc5ccc(Cl)cc5)s4)c3nc12		inconclusive: 7.94 µM [activator, partial curve]
O=C(Oc1ccccc1F)c1nc(SCc2ccc(F)cc2)ncc1Cl	inactive: 0.495%	
Cc1noc(/C=C/c2ccccn2)c1[N+](=O)[O-]		inconclusive: 14.1 µM [activator, single point]

SMILES	activation	Potency
Cc1csc(NC(=O)Cc2ccc(F)cc2)n1	inactive: 4.38%	
CC(=O)Nc1ccc2sn(-c3ccccc3)c(=O)c2c1		inconclusive: 17.8 µM [activator, single point]
Fc1cc(F)c2nc(Nc3nc4c(F)cccc4s3)sc2c1		inconclusive: 3.98 µM [activator, partial curve, poor fit]
Cc1sc(NC(=O)CCl)c(C(=O)c2ccccc2)c1C		inconclusive: 22.4 µM [activator, single point]
O=C(Nc1nc2c(F)cccc2s1)c1ccco1		active: 7.08 µM
CC(=O)C1=C(c2ccccc2)N(C(C)=O)n2c(C)nnc2S1		inconclusive: 17.8 µM [activator, single point]
COc1cccc(NC(=O)/C=C/c2ccccc2[N+](=O)[O-])c1		inconclusive: 15.8 µM [activator, partial curve, poor fit]
O=C1NC(=S)S/C1=C\c1coc2ccccc2c1=O		inconclusive: 15.8 µM [activator, single point]
O=C(CN1CC(=O)Oc2ccccc21)NCc1ccco1		inconclusive: 17.8 µM [activator, partial curve, poor fit]
CCOc1ccc2ncc3c(-c4cccc(OC)c4)nn(-c4ccccc4)c3c2c1	inactive: -1.01%	
CC(C)(C)NCC(O)CON=C1c2ccccc2-c2ccccc21 (stereo unspecified)		inconclusive: 31.6 µM [activator, single point]
O=S(=O)(c1ccccc1)c1nnn2c1nc(NCc1ccccc1)c1cc(Cl)ccc12	inactive: 2.05%	
CCOc1cc(NC(=S)Nc2ccccc2OC)c(OCC)cc1NC(=O)c1ccccc1C	inactive: -0.548%	
Cc1ccccc1-c1ccc(C(=O)Nc2cccc(F)c2)o1		inconclusive: 12.6 µM [activator, single point]
CCC(C)N1C(=O)/C(=C/c2c(NCCCOC(C)C)nc3c(C)cccn3c2=O)SC1=S (stereo unspecified)	inactive: -0.336%	
COc1ccc(-c2noc(-c3ccccc3F)n2)cc1		inconclusive: 2.51 µM [activator, partial curve, poor fit]
COc1ccc(CN2C(=O)/C(=C/c3ccncc3)SC2=S)cc1		inconclusive: 20 µM [activator, partial curve, poor fit]
COc1cc(NS(=O)(=O)c2c(C)nc3sc(C)c(C)n3c2=O)cc(OC)c1	inactive: 0.067%	
c1ccc(CCc2nn3c(-c4ccncc4)nnc3s2)cc1	inactive: 0.0416%	
O=C(Nc1ccc2c(c1)OCO2)c1ccc(Br)c(S(=O)(=O)N2CCCC2)c1	inactive: 0.532%	
COc1ccc(NS(=O)(=O)c2cccc3ccccc23)cc1	inactive: 0.156%	
CCN(CC)S(=O)(=O)c1cc(C(=O)Nc2ccccn2)ccc1C		inconclusive: 10 µM [activator, partial curve, poor fit]
CC(=O)Nc1ccc(NC(=O)c2ccc(-c3c(C)noc3C)c3ccoc23)cc1		inconclusive: 12.6 µM [activator, single point]
Cc1cc(NCc2ccco2)nc2cc(O)ccc12		inconclusive: 14.1 µM [activator, partial curve, poor fit]

SMILES	activation	Potency
Cc1cc(NC(=O)c2ccccc2)sc1C		inconclusive: 11.2 µM [activator, partial curve]
COc1ccc(C)c2sc(NC(=O)C3CC3)nc12		inconclusive: 15.8 µM [activator, partial curve, poor fit]
Cc1cc(C)c2c(c1)/C(=C/C(=O)c1ccc(Br)s1)C(=O)N2	inactive: -0.219%	
CCCC1=NN2C(=N)/C(=C\c3ccc(SCc4ccco4)o3)C(=O)N=C2S1		inconclusive: 31.6 µM [activator, single point]
Cc1cc(C(=O)CCl)c(C)n1CCc1ccc(Cl)cc1		inconclusive: 22.4 µM [activator, single point]
CC(C)Cn1c([N+](=O)[O-])nc2c1c(=O)[nH]c(=O)n2C		inconclusive: 3.16 µM [activator, single point]
O=C(O)COc1ccc(/C=C/C(=O)c2ccc(C3CCCCC3)cc2)cc1		inconclusive: 35.5 µM [activator, partial curve, poor fit]
O=C(/C=C/Nc1ccc(Br)cn1)c1cccc(OC(F)F)c1		inconclusive: 11.2 µM [activator, partial curve]
O=C(/C=C/c1ccc2c(c1)OCCO2)c1ccc(O)cc1		active: 5.01 µM
CCOC(=O)N1CCN(CCC(=O)c2ccc(Br)cc2)CC1		inconclusive: 25.1 µM [activator, single point]
N#Cc1c(C(F)(F)F)cc(-c2ccco2)nc1SCc1ccccn1		inconclusive: 11.2 µM [activator, partial curve]
CC1=NN(c2ccccc2)C(=O)C1N=Nc1cccc(O)c1 (stereo unspecified)		inconclusive: 3.16 µM [activator, partial curve, poor fit]
COc1ccc(-c2cc(-c3cc(OC)ccc3O)[nH]n2)cc1		inconclusive: 10 µM [activator, partial curve, poor fit]
CN(C)c1ccc(C(C[N+](=O)[O-])c2c(N)n(C)c(=O)n(C)c2=O)c(F)c1C#N (stereo unspecified)		inconclusive: 3.55 µM [activator, single point]
CC[n+]1c(/C=C2\C=C(C)CC(C)C2)sc2ccccc21 (stereo unspecified)		inconclusive: 28.2 µM [activator, single point]
Cc1cccc2nc(=S)n(C(=O)c3ccco3)n12		inconclusive: 1.78 µM [activator, full curve, poor fit]
COc1cc(Cl)c(NC(=O)CC(C)S(=O)(=O)c2cc3c(cc2C)NC(=O)CO3)c(OC)c1 (stereo unspecified)	inactive: 3.6%	
CN1C(=O)c2ccccc2N(C)C1c1cccs1 (stereo unspecified)	inactive: -0.454%	
COc1ccc2c(c1)c(CC(=O)Nc1cc(C)ccc1C)c(C)n2C(=O)c1ccc(Cl)cc1	inactive: 3.62%	
CCCc1cc(=O)[nH]c(Nc2ccccc2O)n1		active: 11.2 µM
Cn1nnnc1Sc1ccc([N+](=O)[O-])cc1Cl		inconclusive: 35.5 µM [activator, partial curve, poor fit]
COc1ccc(NC(=O)CN(C)CC(=O)N(C)C2(C#N)CCC(C)CC2)cc1 (stereo unspecified)	inactive: 2.78%	
C#CCOCCOCCOCCNc1nc(N2CCN(C(=O)CCCCCCCCCCNC(=O)[C@H]([C@@H](C)CC)n3cc(CCCCN=C(N)N)nn3)CC2)nc(N2CCN(C(=O)CCCCCCCCCCNC(=O)[C@H](CO)n3cc(CCCCCN)nn3)CC2)n1	inactive: -2.55%	

Reference: PubChem BioAssay AID624171 (National Center for Advancing Translational Sciences (NCATS), 2012)
